This is an account of results in paper PMC9326220.

Protein sequences, listed by entry. Tags and fused reporters are not part of them. Residues count along the entry.
UniProt P97772, residues 21-1199: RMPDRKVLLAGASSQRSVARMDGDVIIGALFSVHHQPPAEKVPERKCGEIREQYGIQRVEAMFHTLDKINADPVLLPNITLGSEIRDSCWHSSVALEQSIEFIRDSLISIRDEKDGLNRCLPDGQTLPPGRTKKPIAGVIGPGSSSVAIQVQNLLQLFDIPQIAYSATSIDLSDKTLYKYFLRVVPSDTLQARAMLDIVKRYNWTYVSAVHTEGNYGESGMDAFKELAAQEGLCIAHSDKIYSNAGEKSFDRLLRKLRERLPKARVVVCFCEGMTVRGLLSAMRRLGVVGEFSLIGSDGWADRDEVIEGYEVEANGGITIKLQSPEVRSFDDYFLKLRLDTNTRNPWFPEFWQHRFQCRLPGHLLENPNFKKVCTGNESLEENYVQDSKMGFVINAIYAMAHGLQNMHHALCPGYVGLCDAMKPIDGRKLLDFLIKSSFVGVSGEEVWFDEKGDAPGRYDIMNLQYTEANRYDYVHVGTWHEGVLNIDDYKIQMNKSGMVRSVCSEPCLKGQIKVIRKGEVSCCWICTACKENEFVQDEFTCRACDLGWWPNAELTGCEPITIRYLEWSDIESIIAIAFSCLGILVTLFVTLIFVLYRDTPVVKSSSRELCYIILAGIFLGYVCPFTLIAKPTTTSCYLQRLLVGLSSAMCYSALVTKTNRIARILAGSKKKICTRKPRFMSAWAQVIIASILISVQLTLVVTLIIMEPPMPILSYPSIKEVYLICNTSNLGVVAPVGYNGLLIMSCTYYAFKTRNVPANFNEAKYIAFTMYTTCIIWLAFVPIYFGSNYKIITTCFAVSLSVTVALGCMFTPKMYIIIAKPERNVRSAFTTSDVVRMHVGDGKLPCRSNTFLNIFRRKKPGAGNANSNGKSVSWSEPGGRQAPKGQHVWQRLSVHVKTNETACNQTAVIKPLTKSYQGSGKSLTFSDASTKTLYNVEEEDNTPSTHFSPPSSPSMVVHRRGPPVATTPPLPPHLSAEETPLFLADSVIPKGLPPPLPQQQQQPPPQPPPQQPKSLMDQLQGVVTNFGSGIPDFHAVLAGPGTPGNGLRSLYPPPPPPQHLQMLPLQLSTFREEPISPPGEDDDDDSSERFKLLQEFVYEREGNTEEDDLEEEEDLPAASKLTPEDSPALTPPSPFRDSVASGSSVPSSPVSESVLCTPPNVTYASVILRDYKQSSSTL

No constants are given. Whether binding was seen depends on the method and setting. Binding seen in cells or lysates may run through a third protein. Some results given as binding are weak or reduced against the parent protein; the word gives no strength. Where a sequence is shown, tags or fusion partners need not be part of it.

What all share (assay): co-IP; transiently transfected HEK293 cells lysed in NETT buffer (50 mM Tris-HCl, 150 mM NaCl, 0.1 mM EDTA, 1% Triton X-100); supernatant with mouse anti-Myc, anti-EGFP or anti-Flag antibody overnight at 4°C, protein A/G agarose 4 h, 5 washes; immunoblot; normal mouse IgG and tag-only vector as controls
A general note: In western blotting, separated proteins are transferred to a membrane and probed.

In assay [1] the target is T1, EGFP-ABM (antibiotic biosynthesis monooxygenase domain of NECAB2) (mouse) (UniProt Q91ZP9).
T1 sequence: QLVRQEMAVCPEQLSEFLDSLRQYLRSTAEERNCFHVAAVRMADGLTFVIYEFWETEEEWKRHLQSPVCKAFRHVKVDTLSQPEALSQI

The target in assay [2] is T2, NECAB2-Myc (neuronal calcium-binding protein 2, mouse) (mouse) (UniProt Q91ZP9).
T2 sequence: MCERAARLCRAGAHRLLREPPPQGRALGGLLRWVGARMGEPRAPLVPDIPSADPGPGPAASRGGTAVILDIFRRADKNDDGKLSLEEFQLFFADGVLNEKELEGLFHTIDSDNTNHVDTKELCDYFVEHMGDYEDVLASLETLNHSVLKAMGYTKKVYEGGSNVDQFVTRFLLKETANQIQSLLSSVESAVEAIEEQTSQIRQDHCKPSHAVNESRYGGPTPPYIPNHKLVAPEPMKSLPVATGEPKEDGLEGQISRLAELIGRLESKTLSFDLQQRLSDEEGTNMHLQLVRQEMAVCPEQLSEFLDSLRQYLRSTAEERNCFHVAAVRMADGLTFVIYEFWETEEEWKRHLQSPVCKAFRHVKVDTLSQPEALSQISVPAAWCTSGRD

In assay [3] the target is T3, NECAB2-Flag (mouse) (UniProt Q91ZP9).
T3 sequence: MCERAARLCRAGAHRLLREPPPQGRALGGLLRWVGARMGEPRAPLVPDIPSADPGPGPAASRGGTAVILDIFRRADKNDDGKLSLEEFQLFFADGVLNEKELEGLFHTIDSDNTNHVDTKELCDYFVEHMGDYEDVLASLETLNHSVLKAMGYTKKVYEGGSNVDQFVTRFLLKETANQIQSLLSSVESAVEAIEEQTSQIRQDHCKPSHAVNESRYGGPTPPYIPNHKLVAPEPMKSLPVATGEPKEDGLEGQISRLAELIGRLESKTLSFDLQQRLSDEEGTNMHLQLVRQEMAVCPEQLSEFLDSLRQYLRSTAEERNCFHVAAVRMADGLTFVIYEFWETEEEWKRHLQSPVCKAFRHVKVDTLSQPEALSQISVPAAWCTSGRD

Assay [4] has as its target T4, Flag-ABM (antibiotic biosynthesis monooxygenase domain of NECAB2) (mouse) (UniProt Q91ZP9).
T4 sequence: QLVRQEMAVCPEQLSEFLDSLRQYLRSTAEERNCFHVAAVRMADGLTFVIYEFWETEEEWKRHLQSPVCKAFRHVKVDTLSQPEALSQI

Regarding “mGluR1-mCherry (metabotropic glutamate receptor 1, mouse Grm1) (from UniProt P97772 21-1199)”, the binding result in assay [1] is “no binding”; in assay [2] it was “binds”.

B1: EGFP-NECAB2 (protein, UniProt Q91ZP9 1-389)
chain: MCERAARLCRAGAHRLLREPPPQGRALGGLLRWVGARMGEPRAPLVPDIPSADPGPGPAASRGGTAVILDIFRRADKNDDGKLSLEEFQLFFADGVLNEKELEGLFHTIDSDNTNHVDTKELCDYFVEHMGDYEDVLASLETLNHSVLKAMGYTKKVYEGGSNVDQFVTRFLLKETANQIQSLLSSVESAVEAIEEQTSQIRQDHCKPSHAVNESRYGGPTPPYIPNHKLVAPEPMKSLPVATGEPKEDGLEGQISRLAELIGRLESKTLSFDLQQRLSDEEGTNMHLQLVRQEMAVCPEQLSEFLDSLRQYLRSTAEERNCFHVAAVRMADGLTFVIYEFWETEEEWKRHLQSPVCKAFRHVKVDTLSQPEALSQISVPAAWCTSGRD
B1: in assay [3], the binding result is given as “binds”.

B2: EGFP-ABM (antibiotic biosynthesis monooxygenase domain of NECAB2) (domain or fragment, UniProt Q91ZP9 289-377)
chain: QLVRQEMAVCPEQLSEFLDSLRQYLRSTAEERNCFHVAAVRMADGLTFVIYEFWETEEEWKRHLQSPVCKAFRHVKVDTLSQPEALSQI
As for B2, the binding entry in assay [4] and in assay [3] was “binds” each time.
